Publication PMC8437142 (The Journal of physiology, 2021)
Where a name gives a salt, the structure may show the parent alone.

Test system: phospho-p38 MAPK
Settings: microglia, C3-C5 ventral horn, ~4.5 hours post-drug injection; morphine 4 mg/kg

**Q.** `CN1CC[C@]23c4c5ccc(O)c4O[C@H]2[C@@H](O)C=C[C@H]3[C@H]1C5` [Morphine, Morphine sulfate] was tested. Which “increase in phospho-p38 MAPK intensity in CD11b-positive cells versus vehicle-treated controls” value did it give?
**A.** The value was 23 ± 7%.
